Reference: PubChem BioAssay AID485364 (National Center for Advancing Translational Sciences (NCATS), 2010)
Among all 360,000 compounds or so, about 11,000 (3.1%) were called active. The inconclusive results got no clear call from the source; some entries with a clear call stand among them for comparison. Calls follow the shape of the dose curve; as a rule, active = well fitted inhibition curve with a large enough effect; inconclusive = small, poorly fitted or top-dose-only effect; inactive = no such curve, though single readings can be large or run the other way. No potency is given beside an inconclusive call; the fits are too rough.

These compounds were tested against Schistosoma mansoni thioredoxin glutathione reductase (TGR) (UniProt Q962Y6) (assay: qHTS Assay for the Inhibitors of Schistosoma Mansoni Peroxiredoxins). Conditions: purified TGR, DTNB reduction, TNB absorbance 405 nm; activity change, negative = inhibition: at 114 µM (top of the series) unless noted.
In short: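 Kinetic colorimetric format: TGR-catalysed, NADPH-driven DTNB reduction monitored via TNB absorbance. Enzyme dispensed at 20 nM; compound exposure 15 min at room temperature before reaction start.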
% is scaled to controls: 0 for no effect and ±100 for the full control effect; potency is read from the fitted curve at half-maximal effect; tags tell the direction and shape of the fitted curve.
Also: nearly all actives have a fitted effect of over 60% in size.

Row | SMILES | Potency | activity change, negative = inhibition
1 | Cc1ccc(S(=O)(=O)NCc2ccncc2)c(C)c1C | inconclusive [inhibitor, partial curve] | –
2 | CCN(N=O)[C@@H](Cc1ccccc1)CN(N=O)[C@@H](Cc1ccccc1)CN(C)N=O | inconclusive [inhibitor, partial curve] | –
3 | CCCCn1c(NC(C)CC)nc2c1c(=O)[nH]c(=O)n2C (stereo unspecified) | – | inactive: -1.28%
4 | COc1ccc(CNc2nc3nc4c(c(=O)n3[nH]2)CCC4)cc1 | inconclusive [inhibitor, single point] | –
5 | CNc1oc(Cc2ccccc2)nc1S(=O)(=O)c1ccccc1 | inconclusive [inhibitor, full curve, poor fit] | –
6 | CC(=O)N(Cc1ccco1)c1nc(C(=O)Nc2ccc(Cl)cc2)c(C)s1 | inconclusive [inhibitor, partial curve, poor fit] | –
7 | COc1ccc(S(=O)(=O)c2c(N)n(Cc3ccco3)c3nc4ccccc4nc23)cc1 | inconclusive [inhibitor, single point] | –
8 | CCCCNC(=S)NC(=O)c1ccc(Cl)cc1Cl | inconclusive [inhibitor, partial curve] | –
9 | CCOc1ccc(-n2c(=O)c3sccc3n(CC(=O)NCCc3ccc(OC)c(OC)c3)c2=O)cc1 | – | inactive: -10.1%
10 | CSCCC(NC(=O)c1ccc([N+](=O)[O-])cc1Cl)C(=O)OC(C)C(=O)NCc1ccco1 (stereo unspecified) | inconclusive [inhibitor, partial curve] | –
11 | Cc1oc2c(c1C(=O)NCc1ccccc1)CCCC2 | inconclusive [inhibitor, partial curve] | –
12 | CCn1c(SCC(=O)NCc2ccco2)nc2cccnc21 | inconclusive [inhibitor, partial curve] | –
13 | COc1cccc(NC(=S)NC(=O)c2cccnc2)c1 | active: 11.2 µM | –
14 | COc1ccc(N(C(=O)c2ccncc2)S(=O)(=O)c2ccc(F)cc2)cc1 | inconclusive [inhibitor, partial curve] | –
15 | Cc1ccccc1OCC(=O)N/N=C/c1sc(=O)n(Cc2cccc(C(=O)O)c2)c1Cl | inconclusive [inhibitor, partial curve] | –
16 | COc1ccccc1OCc1ccc(C(=O)N2CCN(C)CC2)o1 | inconclusive [inhibitor, single point] | –
17 | CC(=O)N1CCc2c(sc3c2c(=O)n(-c2cccc(Cl)c2C)c(=O)n3Cc2ccccc2C)C1 | – | inactive: 1.32%
18 | Cn1ncc(Br)c1C(=O)N1CCc2ccccc21 | inconclusive [inhibitor, single point] | –
19 | CC1CCCN(Cc2cccc(Oc3ccccc3)c2)C1 (stereo unspecified) | – | inactive: 5.8%
20 | CCCCCCSc1cccc(-c2nc3cc(C)ccn3c2NC2CCCCC2)c1 | – | inactive: 0.63%
21 | CCCCCCNC(=O)N[C@H](Cc1ccc(O)cc1)C(=O)NCCC[C@H]1CN2C(=NC[C@H]2CCC)N1CC1CCC1 | active: 5.01 µM | –
22 | CCOc1ccc(NC(=S)c2ccncc2)cc1 | – | inactive: -17.9%
23 | COc1ccc(Cn2ccnc2SCC(=O)Nc2ccc3c(c2)OCO3)cc1 | inconclusive [inhibitor, single point] | –
24 | CC(=O)CSc1cc(-c2ccccc2)nc2ncnn12 | inconclusive [inhibitor, partial curve] | –

Row | SMILES | Potency | activity change, negative = inhibition
25 | CCc1ccc(S(=O)(=O)N/N=C\c2ccc([N+](=O)[O-])o2)cc1 | inconclusive [inhibitor, full curve, poor fit] | –
26 | CCOC(=O)c1ccccc1Nc1nc2ccc(C)cc2n2nnnc12 | inconclusive [inhibitor, single point] | –
27 | COc1ccc(C(=O)NC(=S)NCc2cccnc2)cc1OC | inconclusive [inhibitor, partial curve] | –
28 | COc1ccc(-c2cc(C(=O)NC(Cc3cc4ccccc4[nH]3)C(=O)O)c(C)o2)cc1OC (stereo unspecified) | inconclusive [inhibitor, partial curve] | –
29 | Cc1ccc(S(=O)(=O)Cc2ccc(C(=O)NCCCN3CCN(C)CC3)o2)cc1 | inconclusive [inhibitor, full curve, poor fit] | –
30 | c1ccc(-c2cnc(CSc3nnc4ccccn34)o2)cc1 | active: 10 µM | –
31 | CC(=NCCN1CCOCC1)c1c(O)n(C2CCCCC2)c(=O)[nH]c1=O | inconclusive [inhibitor, partial curve] | –
32 | CCOc1ccc(N=NC2C(=O)N(C(N)=S)N=C2C)cc1 (stereo unspecified) | inconclusive [inhibitor, partial curve] | –
33 | CN(C)c1cc[n+](CC(=O)c2ccc(-c3ccccc3)cc2)cc1 | inconclusive [inhibitor, single point] | –
34 | Cn1c(C=O)c(C#CC(C)(C)O)c2ccccc21 | inconclusive [inhibitor, partial curve, poor fit] | –
35 | Cc1cccc(NC(=O)CN2C(=O)N/C(=C\c3ccc(-c4cccc(C(=O)O)c4)o3)C2=O)c1 | active: 56.2 µM | –
36 | CC1CCN(S(=O)(=O)c2ccc3c(c2)CCN3C(=O)Nc2cccc(Br)c2)CC1 | – | inactive: 5.91%
37 | COP1(=O)C=C[C@H](N(Cc2ccccc2)S(=O)(=O)c2ccccc2[N+](=O)[O-])[C@@H](C)O1 (stereo partly specified) | inconclusive [inhibitor, partial curve] | –
38 | CS/C(=C\[N+](=O)[O-])Nc1ccc(OC(F)(F)F)cc1 | active: 0.282 µM | –
39 | Cc1cccc(C(=O)NCC(c2cccs2)S(=O)(=O)c2cccs2)c1 (stereo unspecified) | inconclusive [inhibitor, partial curve] | –
40 | CSc1n[nH]c(-c2ccc(C(F)(F)F)cc2)n1 | – | inactive: 10.2%
41 | COc1cc(C(=O)NC(C)C2CC3CCC2C3)ccc1OC(F)F (stereo unspecified) | inconclusive [inhibitor, single point] | –
42 | Cc1ccc(C2C(C(=O)c3sc(C)nc3C)=C(O)C(=O)N2CCN2CCOCC2)o1 (stereo unspecified) | active: 39.8 µM | –
43 | COc1ccc(S(=O)(=O)N2CCCCCC2)cc1NC(=O)CC1OC(=O)c2ccccc21 (stereo unspecified) | active: 39.8 µM | –
44 | Cc1c(Cl)cccc1NC(=O)NCc1ccccn1 | active: 39.8 µM | –
45 | O=C(N/N=C/c1ccc(N2CCCCC2)o1)c1ccccc1 | active: 7.94 µM | –
46 | Cc1onc(NC(=O)c2ccc([N+](=O)[O-])o2)c1Br | active: 28.2 µM | –
47 | CCN(CC(=O)NCc1cccs1)C(=O)c1cccc(S(=O)(=O)NC)c1 | inconclusive [inhibitor, single point] | –
48 | COc1ccc(NC(=O)CCS(=O)(=O)c2cccc3nonc23)cc1 | inconclusive [inhibitor, full curve] | –

Row | SMILES | Potency | activity change, negative = inhibition
49 | Oc1ccc2ccccc2c1CNc1ccccn1 | active: 2.24 µM | –
50 | O=C(c1cccc(F)c1)N1CCN(Cc2c[nH]c3ccccc23)CC1 | inconclusive [inhibitor, partial curve] | –
51 | Cc1ccc(N(C)C(=O)CCS(=O)(=O)c2ccc3c(c2)oc(=O)n3C)cc1 | inconclusive [inhibitor, partial curve] | –
52 | FC(F)(F)c1cccc(-c2ccc(-c3csnn3)o2)c1 | inconclusive [inhibitor, partial curve] | –
53 | CC(C)c1ccc(N2C(=O)NC(=O)/C(=C\C=C\c3ccco3)C2=O)cc1 | inconclusive [inhibitor, partial curve] | –
54 | C=CCOc1cccc(C2/C(=C(/O)c3ccccc3)C(=O)C(=O)N2CCN2CCOCC2)c1 (stereo unspecified) | inconclusive [inhibitor, partial curve] | –
55 | O=S(Cc1ccc(Br)cc1)Cc1nnc(SCc2ccc(Cl)cc2)n1-c1ccccc1 (stereo unspecified) | – | inactive: 0.367%
56 | CCOC(=O)c1c(C)nc2ccccn12 | – | inactive: 6.38%
57 | COC(=O)c1ccc(C(=O)Nc2ccc(F)cc2)cc1 | – | inactive: -27.1%
58 | COc1ccc(-c2nc3ccccc3o2)cc1NC(=O)c1cccc2c(Cl)cccc12 | – | inactive: 7.9%
59 | CNC(=O)COC(=O)c1cc(-c2ccc(OC)cc2)nc2ccccc12 | inconclusive [inhibitor, single point] | –
60 | COc1ccc(C(=O)N2CCN(Cc3ccccc3C(F)(F)F)CC2)cc1 | – | inactive: -0.674%
61 | Cc1ccc(CNC(=O)C2CCN(S(=O)(=O)c3c(C)noc3C)CC2)cc1 | inconclusive [inhibitor, partial curve, poor fit] | –
62 | CCCCCC(=O)N1CCN(CCN=CC2=C(O)CC(c3ccco3)CC2=O)CC1 (stereo unspecified) | inconclusive [inhibitor, partial curve] | –
63 | O=[N+]([O-])c1ccc(Sc2cccc[n+]2[O-])c2nonc12 | active: 0.282 µM | –
64 | CCC(=O)Nc1cc(OC)c(NC(=O)c2ccccc2)cc1OC | – | inactive: -5.37%
65 | Cc1onc(-c2ccccc2)c1C(=O)N/N=C/c1ccco1 | inconclusive [inhibitor, single point] | –
66 | C/C=C/C=C\C(=O)Nc1cccc(C2=NOC3(C2)C[C@H](C(N)=O)N(C(=O)/C=C/C)C3)c1 (stereo partly specified) | active: 2.82 µM | –
67 | N#Cc1ccccc1S(=O)(=O)N1CCN(C(=O)C2COc3ccccc3O2)CC1 (stereo unspecified) | inconclusive [inhibitor, partial curve] | –
68 | COc1cc(/C=C2\SC(=S)N(Nc3ccccc3)C2=O)cc(OC)c1OC | inconclusive [inhibitor, partial curve, poor fit] | –
69 | c1ccc(-c2nnc(CSc3nnc(-c4ccncc4)n3Cc3ccco3)o2)cc1 | inconclusive [inhibitor, partial curve] | –
70 | CN1CCCC(C(=O)c2ccc(Cl)cc2)C1 (stereo unspecified) | active: 35.5 µM | –
71 | CCOC(=O)N1CCN(C(=O)C2CCN(Cc3cccc(OCc4ccccc4)c3)CC2)CC1 | – | inactive: 0.461%
